Experimental findings from PubChem BioAssay (NCI) are described below.

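All cell lines were grown in 96-well plates and treated with compound for 48 hours. The concentration for 50% growth inhibition is given as GI50. TGI marks complete inhibition of growth.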

This assay relates to NCI-H322M lung. Description: DTP human tumour cell line panel, 48 h.
With `CN(C)CCOc1ccc(C(=O)C2[C@H](c3ccc(Cl)cc3)[C@@H](c3ccccc3)NC23C(=O)Nc2ccc(Br)cc23)cc1` (stereo not given in full), the GI50 was 2.26 µM and the TGI is 4.42 µM.
The corresponding values for `Cn1cc(-c2cc3nc(-c4cn(C)c5ncccc45)cc(N)n3n2)c2cc(F)ccc21` are 17.9 µM and over 100 µM.
Regarding `CN1CCN(C(=O)Oc2cc3c(c4ccccc24)[C@H](CCl)CN3C(=O)c2cc3cc(OCCCN4CCC4)ccc3[nH]2)[C@@H]2CSSC[C@H]21`, the GI50 was 0.00414 µM and the TGI is 0.0329 µM.
As to `O=C1NC(=S)S/C1=C\c1cn(-c2ccccc2)nc1-c1ccc([N+](=O)[O-])cc1`, the GI50 was 3.52 µM and the TGI was determined as 17.9 µM.
For `CN(C)c1nc(NCCNS(=O)(=O)c2ccc(C(=O)/C=C/c3ccccc3)cc2)nc(N2CCOCC2)n1` the same measures were 14.8 µM and 28.9 µM.
